Laboratory results published in PubChem BioAssay AID1347120 (National Center for Advancing Translational Sciences (NCATS), 2019).
The campaign covered roughly 390,000 compounds. About 930 (0.24%) were called active. Inconclusive results, whose numbers are uncertain, are shown with a selection of clear calls. Calls follow the shape of the dose curve; as a rule, active = well fitted activation curve with a large enough effect; inconclusive = small, poorly fitted or top-dose-only effect; inactive = no such curve, though single readings can be large or run the other way. Potencies beside an inconclusive call are fits to weak or partial responses and may not hold up.

Test: qHTS for Suppressors of FUS Proteinopathy: Primary screen using FUS-linked yeast assay; also: nearly all actives have a fitted effect of over 55% in size;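 as to growth rescue (activation): plate controls were DMSO vehicle for no effect and reference control for full effect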
Details: S. cerevisiae FUS-expressing, OD600, 24 h; Potency: growth rescue; growth rescue (activation): at 76.6 µM (top of the series)
Method in brief: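 Absorbance at 600 nm, taken 24hr after compound addition, measured rescue of FUS-yeast growth at 30C. Induction used 2% galactose with seeding at OD 0.005. Controls: CP55940 from 92uM final, DMSO only.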
Potency is read from the fitted curve at half-maximal effect; tags tell the direction and shape of the fitted curve.

Row | SMILES | growth rescue (activation) | Potency
1 | COc1cccc(NC(=O)CSC2=Nc3ccccc3C3=NC(CCC(=O)NCCc4ccccc4)C(=O)N23)c1 (stereo unspecified) | inactive: 33.9% | 
2 | Cc1ccc(NC(=O)CN2CCN(S(=O)(=O)c3ccc(C(C)C)cc3)CC2)cc1F |  | inconclusive: 22.4 µM [activator, partial curve]
3 | Cc1ccc(-c2cc(-c3ccccc3)nc(N/N=C/c3cccnc3)n2)cc1 |  | inconclusive: 31.6 µM [activator, partial curve, poor fit]
4 | CCN1CCN(Cc2ccc(NC(=O)c3cc(NC(=O)c4cc(-c5ccc(OC)cc5)n[nH]4)cc(OC)c3)cc2C(F)(F)F)CC1 |  | active: 28.2 µM
5 | C/C=C\C(=O)Nc1cccc(C2=NOC3(C2)C[C@@H](C(N)=O)N(C(=O)CC(c2ccccc2)c2ccccc2)C3)c1 (stereo partly specified) |  | inconclusive: 28.2 µM [activator, single point]
6 | COc1ccc(Nc2nnc(-c3ccc(O)cc3)c3ccccc23)cc1 | inactive: -2.33% | 
7 | Cc1ccc2c(c1)NC(=O)C(CC(=O)NCc1ccc(F)cc1)O2 (stereo unspecified) |  | inconclusive: 14.1 µM [activator, partial curve, poor fit]
8 | Cc1ccc(-n2c(SCC(=O)Nc3ccccc3-c3ccccc3)nnc2-c2cnccn2)cc1 |  | inconclusive: 22.4 µM [activator, partial curve, poor fit]
9 | Cc1cc(Cl)ccc1OCC(=O)OCC(=O)NC1CCS(=O)(=O)C1 (stereo unspecified) |  | inconclusive: 6.31 µM [activator, single point]
10 | CCOc1ccc(NC(=O)c2c(NC(=O)CNCCN3CCOCC3)sc3c2CCC3)cc1 |  | inconclusive: 3.98 µM [activator, full curve]
11 | CCCOc1ccc(CN(C(=O)Cc2coc3ccc(CC)cc23)C2CCS(=O)(=O)C2)cc1 (stereo unspecified) |  | inconclusive: 22.4 µM [activator, partial curve, poor fit]
12 | O=C(Nc1ccc2c(c1)OCCO2)C(c1ccccc1)n1c(=O)c(-c2ccco2)nc2ccccc21 (stereo unspecified) |  | inconclusive: 39.8 µM [activator, single point]
13 | COc1ccc(NC(=O)c2c(NCc3sccc3C)sc3c2CCCC3)c(OC)c1 |  | inconclusive: 28.2 µM [activator, single point]
14 | O=C(Nc1nc(-c2ccncc2)cs1)C1c2ccccc2Oc2ccccc21 |  | inconclusive: 35.5 µM [activator, single point]
15 | COc1ccc(OC)c(-c2nnc3n2N=C(c2ccc(OC)c(OC4CCCC4)c2)CS3)c1 |  | inconclusive: 15.8 µM [activator, partial curve, poor fit]
16 | COC(=O)C1(C(=O)OC)C[C@H](c2ccc(OC)cc2)N(Cc2ccccc2OC)[C@@H]1c1ccc(OC)cc1 | inactive: 23.8% | 
